From PubChem BioAssay AID1625 (Sanford-Burnham Center for Chemical Genomics, 2009)
The list shows a part of the results. Shown are side measurements of this screen, not its main read-out; they come without a call. Most of these compounds were active or inconclusive in the main read-out, so they are no random draw.

Assay: insulin promoter activators in MIN6 cells, imaging, high-content screening, mouse beta cells (AID 1625);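 note: total cells summed across four imaged fields per well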
Conditions: MIN6 insulin promoter-GFP reporter, measured here: cytotoxicity, nuclei count, at 5 µM

Compound | cell count
COc1ccc2cc3[n+](cc2c1OC)CCc1cc2c(cc1-3)OCO2 | 394 cells
CCOc1ccc(-n2c(-c3ccc(Br)cc3)c[n+]3c2CCCCC3)cc1 | 317 cells
CCCCCCc1cc2cc(-c3nnc(-c4ccccc4O)o3)c(=O)oc2cc1O | 982 cells
Cc1cccc(C)c1NC(=O)C(NC=O)c1ccccc1Cl (stereo not given) | 319 cells
CCCCCn1c2c(c(=N)c3ccccc31)CCC2 | 285 cells
Cn1cc(/C=C2\SC(=S)N(NC(=O)c3ccccc3Cl)C2=O)c2ccccc21 | 1240 cells
CCN(CC)CCn1c(=N)n(CC(O)c2ccco2)c2ccccc21 (stereo not given) | 456 cells
N#C/C(=C\c1ccc(N2CCOCC2)o1)C(=O)NCCc1ccccc1 | 1530 cells
CCc1ccc(-n2cc(-c3ccc(F)cc3)[n+]3c2SCCC3)cc1 | 460 cells
CCN(CC)c1ccc(/C=C(\C#N)C(=O)c2ccc(Br)cc2)cc1 | 1240 cells
N#Cc1ccc(-c2ccccc2)nc1SCC(=O)c1cccc(Cl)c1 | 1670 cells
Nc1c(C(=O)C2CC2)sc2nc(-c3cccs3)cc(C(F)(F)F)c12 | 913 cells
COc1cccc(NC(=O)Cn2c(-c3cncs3)nc3ccccc32)c1 | 942 cells
CC(=O)C(=Cc1cn(-c2ccccc2)nc1-c1ccccc1)C(C)=O | 1320 cells
COc1cccc2c1C(CO)N1C(C#N)C3CC(C(=O)O)C(C1C2)N3C (stereo not given) | 271 cells
CCOC(=O)c1sc2nc(CC(=O)OC)nc(NCC(=O)OC)c2c1C | 414 cells
CN(C)CCCNS(=O)(=O)c1ccc(N2CCC(c3ccc(Cl)cc3)=N2)cc1 | 349 cells
O=C(Nc1cnn(C23CC4CC(CC(C4)C2)C3)c1)c1cnn2c(C(F)(F)F)cc(-c3ccco3)nc12 | 371 cells
Cc1ccc(-n2c(Cl)c(Cl)nc(Cl)c2=O)cc1 | 187 cells
CC(C)(C)c1ccc(OCC(=O)Nc2ccc3c4c(cccc24)C(=O)NC3=O)cc1 | 1420 cells

Compound | cell count
CSc1snnc1-c1ccccc1 | 442 cells
CCN(CC)c1ccc(Nc2nc(N3CCOCC3)c3ccccc3n2)cc1 | 217 cells
Cc1cc(/C=C2/C(=O)N(C)C(=S)N2C)ccc1N1CCCC1 | 1490 cells
O=C1S/C(=C/c2ccc(N3CCOCC3)o2)C(=O)N1Cc1c(F)cccc1Cl | 863 cells
CCCCCCCCC[n+]1cccc2c3ccccc3ccc21 | 339 cells
Cc1ccc(Cn2c(=N)n(CC(O)COc3ccccc3)c3ccccc32)cc1 (stereo not given) | 421 cells
c1ccc(-c2cnn3c(-c4ccccc4)c(-c4ccccc4)nc3n2)cc1 | 1380 cells
Cn1c[n+](C)cc1-c1ccc(/C(N)=N/O)cc1 | 489 cells
Cc1ccc(-c2c[n+](Cc3ccc(Cl)c(Cl)c3)c3n2CCC3)cc1 | 334 cells
FC(F)(F)c1nc(-c2cccs2)ncc1-c1nnnn1-c1ccc(Cl)cc1 | 435 cells
CCN(CC)CCN1C(=O)c2oc3ccccc3c(=O)c2C1c1ccccc1 (stereo not given) | 957 cells
CCOC(=O)N1CCC(NC(=O)c2cc(C(=O)Nc3ccc(OC)c(OC)c3)ccc2CO)CC1 | 1180 cells
Cc1cc(Cl)c(S(=O)(=O)N2CCN(c3ccc(F)cc3)CC2)cc1OCC(=O)NC1CCCCC1 | 471 cells
Cc1nc2ccc(NC(=O)c3cc(S(=O)(=O)N(C)c4ccccc4)ccc3Cl)cc2s1 | 435 cells
O=[N+]([O-])c1ccc(/C=C/C2=NN(c3ccccc3)C(c3ccco3)C2)o1 (stereo not given) | 1180 cells
Cc1ccc(S(=O)(=O)NCc2ccncc2)cc1 | 439 cells
c1ccc2c(c1)OCC(CNc1ncnc3sccc13)O2 (stereo not given) | 413 cells
COc1ccc(CCn2c(NCc3ccco3)nc3c2c(=O)[nH]c(=O)n3C)cc1 | 472 cells
COc1ccc(C(=O)N(CN2CCCC2=O)c2ccc(C)cc2)cc1 | 1360 cells
CCCN1CCc2c(sc(NC(=S)NC(=O)c3ccccc3)c2C#N)C1 | 1180 cells

Compound | cell count
COc1cc(OC)cc(C(=O)Nc2cccc(C(C)=O)c2)c1 | 1380 cells
CCn1c(Cn2nnc(-c3ccccc3)n2)nnc1SCC(=O)Nc1ccc(C(C)=O)cc1 | 1370 cells
Cc1nc(Nc2ccc(F)cc2)[nH]c(=O)c1CCC(C)C | 494 cells
CCOc1ccc(N(CC(=O)Nc2ccc(C)c(C)c2)S(=O)(=O)c2c(C)noc2C)cc1 | 374 cells
C[C@@]1([C@@H](NC(=O)c2cccs2)c2ccc(-c3ccccc3)cc2)C[C@H]1C1CCCCC1 | 384 cells
Cc1ccc(NC(=O)CCl)c(C)c1 | 1040 cells
Cc1c(OCc2ccccc2)cccc1OCc1ccccc1 | 398 cells
O=C1CN(C(=O)COc2ncnc3ccccc23)c2ccccc2N1 | 830 cells
Nc1nonc1C(=O)NCCNCc1cc(Br)ccc1OCc1ccccc1F | 467 cells
NC(=O)c1cc2c3ccccc3ccn2c1-c1ccccc1 | 436 cells
c1ccc(-c2cn(-c3ccccc3)c3[n+]2CCCS3)cc1 | 450 cells
CC(=O)n1cc(N(C(=O)CCl)c2ccc([N+](=O)[O-])cc2)c2ccccc21 | 497 cells
Cc1ccc(/C(C#N)=C\c2ccc(N3CCOCC3)o2)cc1 | 1650 cells
CCC(C(=O)OCC(=O)Nc1cccc(S(=O)(=O)NC2=NCCCCC2)c1)c1ccccc1 (stereo not given) | 1200 cells
CCCC1C2CN(C(C)C)CC=C2C(C#N)=C(N)C1(C#N)C#N (stereo not given) | 1370 cells
CC1=CC(=O)c2c(O)ccc(O)c2C1=O | 302 cells
CCCCCCCCCC[n+]1cccc2c3ccccc3ccc21 | 441 cells
CCCCCCCC[n+]1cccc2c3ccccc3ccc21 | 391 cells
COc1cc(N2CCCC2)c(OC)cc1/C=c1/sc2nc3ccccc3n2c1=O | 1380 cells
CCCCN1C(=O)/C(=C/C=C2\N(C)c3ccccc3C2(C)C)SC1=S | 1120 cells
